The test deals with T1, CI-MPR receptor.
T1 construct: also called IGF2/CI-MPR; IGF2/Mannose-6-phosphate receptor
As to the kind of experiment: CIMPR plate binding assay, bound NAGLU activity (4MU released).

B1: vIGF2-NAGLU-HPC4 (enzyme)
chain: [about 60 residues cut from this listing]GGGGSGGGGSRPRAVPTQAEAREAAAVRALVARLLGPGPAADFSVSVERALAAKPGLDTYSLGGGGAARVRVRGSTGVAAAAGLHRYLRDFCGCHVAWSGSQLRLPRPLPAVPGELTEATPNRYRYYQNVCTQSYSFVWWDWARWEREIDWMALNGINLALAWSGQEAIWQRVYLALGLTQAEINEFFTGPAFLAWGRMGNLHTWDGPLPPSWHIKQLYLQHRVLDQMRSFGMTPVLPAFAGHVPEAVTRVFPQVNVTKMGSWGHFNCSYSCSFLLAPEDPIFPIIGSLFLRELIKEFGTDHIYGADTFNEMQPPSSEPSYLAAATTAVYEAMTAVDTEAVWLLQGWLFQHQPQFWGPAQIRAVLGAVPRGRLLVLDLFAESQPVYTRTASFQGQPFIWCMLHNFGGNHGLFGALEAVNGGPEAARLFPNSTMVGTGMAPEGISQNEVVYSLMAELGWRKDPVPDLAAWVTSFAARRYGVSHPDAGAAWRLLLRSVYNCSGEACRGHNRSPLVRRPSLQMNTSIWYNRSDVFEAWRLLLTSAPSLATSPAFRYDLLDLTRQAVQELVSLYYEEARSAYLSKELASLLRAGGVLAYELLPALDEVLASDSRFLLGSWLEQARAAAVSEAEADFYEQNSRYQLTLWGPEGNILDYANKQLAGLVANYYTPRWRLFLEALVDSVAQGIPFQQHQFDKNVFQLEQAFVLSKQRYPSQPRGDTVDLAKKIFLKYYPRWVAGSWGLEVLFQGPEDQVDPRLIDGK
notes: Whole entry; it includes the native NAGLU signal peptide; also called IGF2-tagged NAGLU (vIGF2)
For B1, the Kd – broadly, the free concentration of one partner at which half of the binding sites on the other are occupied at equilibrium, for simple one-to-one binding – was 38.2 nM.

The values are drawn from US20240091321A1 (AMICUS THERAPEUTICS, published 2024).
